Test results published in PMC5892938.
Some of the results follow. Construct or isoform of the protein are uncertain.

Target: GST-SBP-ILF3 (Homo sapiens) (UniProt Q12906)
Assay: targeted RNA Bind-n-Seq
Conditions: RBNS binding buffer: 25 mM Tris pH 7.5, 150 mM KCl, 3 mM MgCl2, 0.1% Tween, 0.5 mg/mL BSA, 1 mM DTT; 27 nM protein, 750 pM RNA pool; temperature not stated; high values mean tight binding; sequences stand for … in GGGUAAAAGCGAGGUGAA…CGGGACAAGUAUUAUGGG

Sequence	binding signal (log2 fold change)
GUUGUGUGUGUUGGCGCCUAACACACGCAA [gtspaired]	0.126
UUUUUUUUUUGAGACUGUUGCAGUCUCCAG [tttttgagapaired]	0.34
UUUUUUUUUUGAGAGGGCCACCCUCUCCGG [tttttgagapaired]	0.783
GUGGUUGGUGUUGGCGCCUAACACCAGCCA [gtspaired]	-0.286
GUGUGUUGUGUUGGAGUCUAACACAGCGCA [gtspaired]	-0.581
GGUGGUGGUGUUGGACCCUAACACCAUCGC [gtspaired]	-0.477
UUUUUUUUUUGAGAGUGAAGCACUCUUCUG [tttttgagapaired]	0.125
UUUUUUUUUUGAGACCGUGUCGGUCUUCUA [tttttgagapaired]	0.448
UUUUUUUUUUGAGAGCGAAACGUUCUCCGG [tttttgagapaired]	0.0893
UUUUUUUUUUGAGAUGGGUACCAUCUCCGG [tttttgagapaired]	0.217
GUGUUGUGUGUUGGACUCUAACACACAACG [gtspaired]	-0.611
UUUUUUUUUUGAGAUGGGGACCAUCUCCAG [tttttgagapaired]	0.288
GGUGUGUGUGUUGGCCUCUAACACAUACAC [gtspaired]	-0.226
UUUUUUUUUUGAGAGGGCGUCCUUCUCCGG [tttttgagapaired]	0.868
GGUUGUGGUGUUGGACCCUAACACCACGAC [gtspaired]	-0.166
UUUUUUUUUUGAGACCGAGUCGGUUUCCAG [tttttgagapaired]	0.684
GUGUGUGGUGUUGGUACCUAACACCGCACG [gtspaired]	-0.419
UUUUUUUUUUGAGAGCGGUCCGCUCUUCUA [tttttgagapaired]	0.538
UUUUUUUUUUGAGAGUGUAGCAUUCUCCGG [tttttgagapaired]	0.308
GUGUGUUGUGUUGGCGCCUAACACAACACG [gtspaired]	-0.448
UUUUUUUUUUGAGAGCGAGGCGCUCUUCUG [tttttgagapaired]	0.25
GUUGUGUGUGUUGGUCCCUAACACACGCAG [gtspaired]	-0.59

Sequence	binding signal (log2 fold change)
UUUUUUUUUUGAGAUGGGCACUAUCUCCUA [tttttgagapaired]	0.395
GUGUGGUGUGUUGGACUCUAACACAUCACA [gtspaired]	-0.694
UUUUUUUUUUGAGAUCGAUACGAUCUCCAG [tttttgagapaired]	0.23
UUUUUUUUUUGAGACGGUGGCCGUUUCCGG [tttttgagapaired]	0.914
UUUUUUUUUUGAGACGGAAGCUGUCUCCGG [tttttgagapaired]	0.765
UUUUUUUUUUGAGAUGGCUACCAUCUCCAG [tttttgagapaired]	0.427
UUUUUUUUUUGAGACGGUAUCCGUCUUCUA [tttttgagapaired]	0.163
UUUUUUUUUUGAGAGCGAAGCGCUCUCCUG [tttttgagapaired]	0.28
UUUUUUUUUUGAGAACGAGUCGUUCUCCUA [tttttgagapaired]	-0.0349
UUUUUUUUUUGAGAGCGUAGCGCUCUCCUA [tttttgagapaired]	0.379
UUUUUUUUUUGAGACGGGGACUGUCUCCUG [tttttgagapaired]	1.02
UUUUUUUUUUGAGACUGAGACAGUCUCCGG [tttttgagapaired]	0.313
GUGUGUGGUGUUGGAGUCUAACACCGCGCA [gtspaired]	-0.791
UUUUUUUUUUGAGAGGGGCUCCCUCUUCUG [tttttgagapaired]	0.719
UUUUUUUUUUGAGAUGGCAUCCAUCUUCUG [tttttgagapaired]	0.256
UUUUUUUUUUGAGACUGGAGCAGUCUCCAG [tttttgagapaired]	0.594
UUUUUUUUUUGAGAUGGAUGCCGUCUCCUA [tttttgagapaired]	0.517
UUUUUUUUUUGAGACGGAUUCCGUCUUCUG [tttttgagapaired]	0.354
UUUUUUUUUUGAGAGCGUAGCGUUCUCCUG [tttttgagapaired]	0.616
GUGGUGUGUGUUGGCGCCUAACACACGCCG [gtspaired]	-0.452
UUUUUUUUUUGAGAAGGCUUCCUUCUCCAG [tttttgagapaired]	0.0835
UUCUUCUCUCCUCCAAGGGAGGGGGGAAGA [ctspaired]	-0.357

Sequence	binding signal (log2 fold change)
UUUUUUUUUUGAGACUGAUGCAGUCUCCUA [tttttgagapaired]	0.428
UUUUUUUUUUGAGACGGCCACCGUCUCCUG [tttttgagapaired]	0.824
GGUUGGUGUGUUGGCUCCUAACACAUCGAC [gtspaired]	-0.634
UUUUUUUUUUGAGAUCGAAACGGUCUCCGG [tttttgagapaired]	0.221
GGUGUGUGUGUUGGACUCUAACACAUACGC [gtspaired]	-1.25
UUUUUUUUUUGAGACUGAAACAGUCUUCUG [tttttgagapaired]	0.334
GUGUGUUGUGUUGGUACCUAACACAGCACA [gtspaired]	-0.583
GUGUUGUGUGUUGGUACCUAACACACAGCA [gtspaired]	-0.434
GGUGGUGGUGUUGGCAUCUAACACCGCUAC [gtspaired]	-0.762
UUUUUUUUUUGAGAUGGCGCCCAUCUCCAG [tttttgagapaired]	0.648
UUUUUUUUUUGAGACGGAAACCGUUUCCUG [tttttgagapaired]	0.419
UUUUUUUUUUGAGACCGGGGCGGUCUCCUA [tttttgagapaired]	0.454
UUUUUUUUUUGAGAGCGACGCGUUCUCCGG [tttttgagapaired]	0.586
UUUUUUUUUUGAGAGGGAUACCCUCUCCUA [tttttgagapaired]	0.0921
UUUUUUUUUUGAGAUGGACUCCAUUUCCGG [tttttgagapaired]	0.234
GUGUGGUGUGUUGGACUCUAACACACUACG [gtspaired]	-0.981
UUUUUUUUUUGAGACCGGCACGGUCUCCAG [tttttgagapaired]	0.52
GGUUGGUGUGUUGGCGUCUAACACACUAAC [gtspaired]	-0.424
UUUUUUUUUUGAGACGGGAUCCGUCUCCUG [tttttgagapaired]	0.403
UUUUUUUUUUGAGACGGAGGCCGUCUCCUG [tttttgagapaired]	0.695
UUUUUUUUUUGAGAGGGAAUCCUUCUCCUA [tttttgagapaired]	-0.179
